In brackets after ≈: the same amount, converted by molar mass. Like-named read-outs stand apart in the source and are kept apart here.
How the values were obtained:
HHV-6B, strain Z29 = assay: microbe, parasite or virus in culture; assay type: cell-based, human herpesvirus 6
HHV-6A, strain GS = assay: microbe, parasite or virus in culture; assay type: cell-based, human herpesvirus 6
human adenovirus type 2 [1] = assay: microbe, parasite or virus in culture; conditions: Human mastadenovirus C, HEL
human adenovirus type 2 [2] = system: human adenovirus type 2
[3] = Human betaherpesvirus 6, MOLT-3, read-out: Antiviral activity EC50 (CPE), HHV-6B
[4] = Human betaherpesvirus 6, MOLT-3, read-out: Antiviral activity EC50 (qPCR), HHV-6B
[5] = Human betaherpesvirus 6, HSB2, read-out: Antiviral activity EC50 (CPE), HHV-6A
[6] = Human betaherpesvirus 6, HSB2, read-out: Antiviral activity EC50 (qPCR), HHV-6A
[7] = read-out: Antiviral activity EC50 (CPE)
[8] = read-out: Antiviral activity EC50 (MTS)

SMILES | EC50 (HHV-6B, strain Z29; [3]) [µg/mL] | EC50 (HHV-6B, strain Z29; [4]) [µg/mL] | EC50 (HHV-6A, strain GS; [5]) [µg/mL] | EC50 (HHV-6A, strain GS; [6]) [µg/mL] | EC50 (human adenovirus type 2 [1]; [7]) [µg/mL] | EC50 (human adenovirus type 2 [1]; [8]) [µg/mL] | activity against Ad2 compared with cidofovir (human adenovirus type 2 [2])
Nc1ccn(C[C@@H](CO)OCP(=O)(O)O)c(=O)n1 [HPMPC, (S)-1-(3-hydroxy-2-phosphonylmethoxypropyl)cytosine, reference compound] | 0.84 (≈ 3.01 µM) | 0.56 (≈ 2.01 µM) | 3.9 (≈ 14 µM) | 2.1 (≈ 7.52 µM) | 1.4 (≈ 5.01 µM) | 3.2 (≈ 11.5 µM) | –
NC(N)=NC(=O)NC[C@@H](CO)OCP(=O)(O)O [Compound 10, 2-{[(2S)-3-Hydroxy-2-(Phosphonomethoxy)propyl]carbamoyl}guanidine] | – | – | > 200 | – | – | – | –
Nc1ncn(C[C@@H](CO)OCP(=O)(O)O)c(=O)n1 [Compound 3, (S)-1-[3-hydroxy-2-(Phosphonomethoxy)propyl]-5-azacytosine] | 0.23 (≈ 0.821 µM) | 0.34 (≈ 1.21 µM) | 0.55 (≈ 1.96 µM) | 0.56 (≈ 2 µM) | 0.6 (≈ 2.14 µM) | 1.1 (≈ 3.93 µM) | clearly more active
NC(=NC(=O)NC[C@@H](CO)OCP(=O)(O)O)NC=O.[Na] [Compound 3a, Sodium 3-formyl-2-{[(2S)-3-hydroxy-2-(phosphono-methoxy)propyl]carbamoyl}guanidine] | 3.6 | 5.5 | 5.8 | 20.8 | 11.3 | 31.8 | –
